The data set is described as follows: xn = mol fraction of the nth substance listed.

The densities may have been worked out from excess volumes.

One may read the mass density as the mass of a sample divided by its volume. As for `C[P+](c1ccccc1)(c1ccccc1)c1ccccc1.[Br-]` + OCCO, the mass density is, setting by setting: (293.15 K, 101 kPa, x1 = 0.25) 1245 kg/m3; (303.15 K, 101 kPa, x1 = 0.25) 1238 kg/m3; (313.15 K, 101 kPa, x1 = 0.25) 1231 kg/m3; (323.15 K, 101 kPa, x1 = 0.25) 1224 kg/m3; (333.15 K, 101 kPa, x1 = 0.25) 1217 kg/m3; (343.15 K, 101 kPa, x1 = 0.25) 1210 kg/m3. Moreover, the mass density (353.15 K, 101 kPa, x1 = 0.25) amounted to 1203 kg/m3.

In the case of `[Cl-].c1ccc(C[P+](c2ccccc2)(c2ccccc2)c2ccccc2)cc1` + OCCO, the mass density amounted to 1128 kg/m3 (303.15 K, 101 kPa, x1 = 0.083); 1114 kg/m3 (323.15 K, 101 kPa, x1 = 0.083); 1107 kg/m3 (333.15 K, 101 kPa, x1 = 0.083); 1100 kg/m3 (343.15 K, 101 kPa, x1 = 0.083); 1093 kg/m3 (353.15 K, 101 kPa, x1 = 0.083).

On to `C[P+](c1ccccc1)(c1ccccc1)c1ccccc1.[Br-]` + OCCOCCO, for which the mass density by setting is: (303.18 K, 101.3 kPa, x2 = 0.2) 1206 kg/m3; (313.18 K, 101.3 kPa, x2 = 0.2) 1199.2 kg/m3; (333.17 K, 101.3 kPa, x2 = 0.2) 1185.2 kg/m3; (343.16 K, 101.3 kPa, x2 = 0.2) 1178.2 kg/m3; (353.16 K, 101.3 kPa, x2 = 0.2) 1170.9 kg/m3.

Turning to `[Cl-].c1ccc(C[P+](c2ccccc2)(c2ccccc2)c2ccccc2)cc1` + OCCOCCO, the mass density by setting is: (293.15 K, 101.3 kPa, x2 = 0.125) 1142.7 kg/m3; (313.05 K, 101.3 kPa, x2 = 0.125) 1132.6 kg/m3; (323.11 K, 101.3 kPa, x2 = 0.125) 1125.9 kg/m3; (333.17 K, 101.3 kPa, x2 = 0.125) 1118.9 kg/m3; (343.1 K, 101.3 kPa, x2 = 0.125) 1112.2 kg/m3; (353.16 K, 101.3 kPa, x2 = 0.125) 1104.8 kg/m3.

Values taken from a compilation of properties of binary mixtures (doi:10.1016/j.molliq.2018.12.032).
